Source: PubChem BioAssay AID1963576 (National Center for Advancing Translational Sciences (NCATS), 2024)
Screen size: about 46,000 compounds; about 60 (0.1%) were called active. Roughly 3% stayed inconclusive and do not appear here. Calls follow the shape of the dose curve; as a rule, active = well fitted inhibition curve with a large enough effect; inconclusive = small, poorly fitted or top-dose-only effect; inactive = no such curve, though single readings can be large or run the other way. This is one part of the list.

Experiment: Primary qHTS assay for Inhibitors of ovarian cancer metastasis using an organotypic tumor microenvironment (TME) model. Also: nearly all actives have a fitted effect of over 65% in size.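 As to activity change, negative = inhibition: plate controls were DMSO wells for no effect and tomatine positive control wells for full effect.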
Settings: SKOV3ip1-GFP adhesion/invasion on 3D omental model, fluorescence; series mostly up to 45.8 µM; activity change, negative = inhibition: at the top concentration
Procedure, shortened: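 Adhesion/invasion was scored as fixed GFP-labeled SKOV3ip1 cell counts (488/509 nm), normalized to DMSO and tomatine controls. Cancer cells in serum-free medium, with four compound doses (0.36-46 umol/L), sat 2 hr at RT then 16 hr at 37 C on a 48 hr fibroblast/mesothelial/ECM culture.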
In the case of `O=C1CC(c2nnc(Cc3ccc(F)cc3)o2)CN1c1ccccc1` (stereo not drawn), the “activity change, negative = inhibition” value is reported as inactive: 8.64%.
For `CCc1cccc(NC(=O)c2cc(S(=O)(=O)N3CCCCCC3)cn2C)c1`, the “outcome” value was “inactive”.
In the case of `COc1ccccc1N1CCN(C(=O)c2cc3c(s2)-c2ccccc2OC3)CC1`, the “activity change, negative = inhibition” value is reported as inactive: -8.48%.
For `CC(C)(C)C(=O)NC1CC(=O)N(c2ccc3c(c2)OCCO3)C1` (stereo not drawn), the “outcome” value was “inactive”.
For `COc1ccccc1NC(=O)c1sc2nc(C)c(C(=O)Nc3ccc(Cl)cc3)c(-c3ccc(Br)cc3)c2c1N`, the “activity change, negative = inhibition” value was inactive: -0.925%.
In the case of `Cc1ccccc1CN1CCC(CNC(=O)c2cc3ccc4cccnc4c3[nH]2)CC1`, the “activity change, negative = inhibition” value is reported as inactive: -30.1%.
In the case of `O=C1CCc2cc(S(=O)(=O)NC(C(=O)Nc3ccc(F)cc3)c3ccccc3)ccc2N1` (stereo not drawn), the “activity change, negative = inhibition” value is reported as inactive: 13.6%.
With `CCN(c1ccccc1)S(=O)(=O)c1ccc(NC(=O)c2cc(=O)c3c(C)cc(C)cc3o2)cc1` the “activity change, negative = inhibition” value was inactive: 5.41%.
In the case of `CNS(=O)(=O)c1ccc(NC(=O)c2nc3nc(C)cc(C(F)F)n3n2)cc1`, the “activity change, negative = inhibition” value is reported as inactive: -9.89%.
For `COc1cccc(-c2cc(C(F)(F)F)n3nc(-c4ccc(C)cc4)cc3n2)c1`, the “outcome” value was “inactive”.
In the case of `CC(C)NC(=O)Cc1csc2nc(-c3ccccc3)cn12`, the “outcome” value is reported as “inactive”.
For `Cc1noc(Cn2c(=O)c3cc4c(cc3n(CC(=O)Nc3ccc(C(C)C)cc3)c2=O)OCO4)n1`, the “activity change, negative = inhibition” value was inactive: -5.16%.
With `CC(C)c1cnc2c(c1SCc1ccc([N+](=O)[O-])cc1)c(=O)n(C)c(=O)n2C` the “activity change, negative = inhibition” value was inactive: -3.09%.
In the case of `O=c1n(Cc2ccccc2)nc2n1-c1ccccc1OC2`, the “activity change, negative = inhibition” value is reported as inactive: -10.9%.
With `COc1cc2c(cc1OC)C(COc1ccc(F)cc1)N(C(=O)C(C)C)CC2` (stereo not drawn) the “outcome” value was “inactive”.
In the case of `CCOc1ccc(NS(=O)(=O)c2ccc3[nH]cc(C(=O)N4CCCC4)c(=O)c3c2)cc1`, the “activity change, negative = inhibition” value is reported as inactive: -0.684%.
For `Cc1nc2nc(CNC(=O)c3cccc(F)c3)nn2c(C)c1CCC(=O)Nc1ccc(F)cc1`, the “outcome” value was “inactive”.
For `Cc1ccccc1C(=O)NCC(c1ccc(N(C)C)cc1)N1CCCC1` (stereo not drawn), the “outcome” value was “inactive”.
For `Fc1ccc(Nc2nc(SCc3ccc(Cl)cc3)nc3ccccc23)cc1`, the “activity change, negative = inhibition” value was inactive: -17.9%.
With `COc1ccc(S(=O)(=O)N(Cc2nc(-c3ccccc3)no2)C2CCCCC2)cc1` the “activity change, negative = inhibition” value was inactive: -8.17%.
For `C=C1C(=O)OC2C=C(C)CCC=C(C)CCC12` (stereo not drawn), the “activity change, negative = inhibition” value was inactive: -21.5%.
In the case of `O=C(CCS(=O)(=O)c1ccc(Br)s1)Nc1c(F)cccc1F`, the “outcome” value is reported as “inactive”.
For `COc1cc(C2CC(=O)N(c3ccc(C)c(Cl)c3)C3=C2C(=O)OC3)cc(OC)c1OC` (stereo not drawn), the “activity change, negative = inhibition” value was inactive: -12%.
For `O=S(=O)(NCC(c1ccco1)S(=O)(=O)c1ccccc1)c1cc(F)ccc1F` (stereo not drawn), the “activity change, negative = inhibition” value was inactive: -10.9%.
In the case of `Cc1cccc(-c2noc(-c3cccnc3NCc3ccccc3Cl)n2)c1`, the “activity change, negative = inhibition” value is reported as inactive: 0.637%.
In the case of `CNC(=O)C1CCC(Cn2c(=O)c3sccc3n(CC(=O)N3CCCCC3C)c2=O)CC1` (stereo not drawn), the “activity change, negative = inhibition” value is reported as inactive: -10.6%.
With `Cc1cc(N2CCN(c3ccccc3F)CC2)n2cnnc2n1` the “activity change, negative = inhibition” value was inactive: -2.22%.
With `CCC(=O)N[C@H]1CC[C@H](C(=O)N(C)c2ccc(-c3nc4ccccc4o3)cc2)C1` the “activity change, negative = inhibition” value was inactive: 1.35%.
In the case of `CCCCOc1ccc(NC(=O)CSc2ccc(C(=O)O)cn2)cc1`, the “activity change, negative = inhibition” value is reported as inactive: -1.72%.
In the case of `CCOC(=O)c1ccc(NC(=O)Nc2cccc(OCc3cc(=O)n4ccc(C)cc4n3)c2)cc1`, the “activity change, negative = inhibition” value is reported as inactive: -3.07%.
With `COc1ccc(NC(=O)CCc2nc3cccnc3n2Cc2cccs2)c(OC)c1` the “activity change, negative = inhibition” value was inactive: 6.57%.
For `CC(C)CCSc1nc2c(c(=O)n(C)c(=O)n2C)n1Cc1ccccc1Cl`, the “activity change, negative = inhibition” value was inactive: 0.96%.
For `O=C(NCCn1cc(SCc2ccc(C(F)(F)F)cc2)c2ccccc21)c1ccccc1F`, the “activity change, negative = inhibition” value was inactive: -3.52%.
In the case of `Cc1ccc(CN2C(=O)SC(Nc3ccccc3)C2=O)cc1` (stereo not drawn), the “activity change, negative = inhibition” value is reported as inactive: 0.252%.
In the case of `COc1cccc(CNC(=O)CCn2ccc3cc(S(=O)(=O)N4CCCC4)ccc32)c1`, the “activity change, negative = inhibition” value is reported as inactive: 2.61%.
With `CCCSc1ncc(Cl)c(C(=O)Nc2ccc(OC)cc2OC)n1` the “activity change, negative = inhibition” value was inactive: -8.54%.
In the case of `O=C(NCc1ccc(F)cc1)c1ccc2c(c1)N(Cc1ccc(F)cc1Cl)C(=O)CS2`, the “outcome” value is reported as “inactive”.
With `CCOc1ccc(NC(=O)CCn2c(-c3ccc(F)cc3)cc(C(C)=O)c2C)cc1` the “activity change, negative = inhibition” value was inactive: -5.43%.
For `Cc1ccc(C2C=C(c3ccc(Cl)cc3)Nc3nc(NC(=O)CCC(=O)O)nn32)cc1` (stereo not drawn), the “activity change, negative = inhibition” value was inactive: -8.69%.
With `O=S(=O)(NCCc1ccc(Cl)cc1)c1ccc(N2CCCCS2(=O)=O)cc1` the “activity change, negative = inhibition” value was inactive: -6.07%.
With `COc1ccc(C2=C(C)C(=O)N(Cc3ccc(C(=O)NCc4ccccc4C)cc3)S2(=O)=O)cc1` the “activity change, negative = inhibition” value was inactive: -9.01%.
With `CCn1cnc2c(=O)oc3ccc(S(=O)(=O)N4CCN(c5cc(C)ccc5C)CC4)cc3c21` the “activity change, negative = inhibition” value was inactive: 0.773%.
With `COc1ccc(NC(=O)Nc2nnc(SCC(=O)Nc3cccc(C)c3C)s2)cc1` the “outcome” value was “inactive”.
For `CCC(C)Cn1c(COc2ccc(OC)cc2)nc2ccccc21` (stereo not drawn), the “activity change, negative = inhibition” value was inactive: -2.84%.
With `COc1ccccc1OCCCn1c(-c2ccc(Cl)cc2)nc2ccccc2c1=O` the “activity change, negative = inhibition” value was inactive: 2.54%.
For `CCCOc1ccc(C(=O)Nc2cc3nn(-c4ccc(CC)cc4)nc3cc2C)cc1`, the “activity change, negative = inhibition” value was inactive: 0.634%.
For `O=C(CSc1nnc(-c2ccccc2)c(-c2ccccc2)n1)Nc1ccccc1Cl`, the “activity change, negative = inhibition” value was inactive: 10%.
In the case of `O=C(CCC(=O)N1CC2CCCN2c2ccccc21)NCc1ccccc1F` (stereo not drawn), the “activity change, negative = inhibition” value is reported as inactive: -7.63%.
